From article PMC12425082
These are yes or no findings as the source states them, for the method shown. In cells and extracts the contact can be indirect. Some entries that bind do so weakly or less than the wild type. Sequences can lack the tags named with a protein.

Protein sequences, listed by entry. Tags and fused reporters are not part of them.
UniProt Q9Y4G2: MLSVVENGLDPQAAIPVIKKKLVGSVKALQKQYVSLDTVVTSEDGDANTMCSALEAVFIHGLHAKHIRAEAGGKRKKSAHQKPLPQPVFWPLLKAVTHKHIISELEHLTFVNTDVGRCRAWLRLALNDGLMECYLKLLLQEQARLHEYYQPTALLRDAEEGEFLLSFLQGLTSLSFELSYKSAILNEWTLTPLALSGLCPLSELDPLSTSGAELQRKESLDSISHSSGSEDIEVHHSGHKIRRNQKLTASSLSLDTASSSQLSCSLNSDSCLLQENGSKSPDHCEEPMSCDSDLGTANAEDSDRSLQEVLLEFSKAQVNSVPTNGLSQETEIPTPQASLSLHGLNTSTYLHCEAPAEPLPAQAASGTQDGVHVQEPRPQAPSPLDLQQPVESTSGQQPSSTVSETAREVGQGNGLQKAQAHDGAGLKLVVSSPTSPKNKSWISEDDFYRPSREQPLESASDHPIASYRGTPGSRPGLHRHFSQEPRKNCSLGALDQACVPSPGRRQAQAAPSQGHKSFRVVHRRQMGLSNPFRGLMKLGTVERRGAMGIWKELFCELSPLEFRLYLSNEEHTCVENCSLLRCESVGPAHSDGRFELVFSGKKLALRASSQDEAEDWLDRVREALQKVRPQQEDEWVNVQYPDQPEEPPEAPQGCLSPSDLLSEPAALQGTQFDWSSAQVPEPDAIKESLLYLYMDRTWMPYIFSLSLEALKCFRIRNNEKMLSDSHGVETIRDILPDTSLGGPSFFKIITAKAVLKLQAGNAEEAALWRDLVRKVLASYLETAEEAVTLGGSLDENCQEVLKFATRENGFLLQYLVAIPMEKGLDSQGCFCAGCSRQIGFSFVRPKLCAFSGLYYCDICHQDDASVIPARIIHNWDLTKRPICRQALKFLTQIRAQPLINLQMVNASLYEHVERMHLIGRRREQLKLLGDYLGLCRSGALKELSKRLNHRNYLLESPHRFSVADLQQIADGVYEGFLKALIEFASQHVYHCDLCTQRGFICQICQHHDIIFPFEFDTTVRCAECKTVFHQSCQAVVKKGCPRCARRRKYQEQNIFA
UniProt Q9GZU1: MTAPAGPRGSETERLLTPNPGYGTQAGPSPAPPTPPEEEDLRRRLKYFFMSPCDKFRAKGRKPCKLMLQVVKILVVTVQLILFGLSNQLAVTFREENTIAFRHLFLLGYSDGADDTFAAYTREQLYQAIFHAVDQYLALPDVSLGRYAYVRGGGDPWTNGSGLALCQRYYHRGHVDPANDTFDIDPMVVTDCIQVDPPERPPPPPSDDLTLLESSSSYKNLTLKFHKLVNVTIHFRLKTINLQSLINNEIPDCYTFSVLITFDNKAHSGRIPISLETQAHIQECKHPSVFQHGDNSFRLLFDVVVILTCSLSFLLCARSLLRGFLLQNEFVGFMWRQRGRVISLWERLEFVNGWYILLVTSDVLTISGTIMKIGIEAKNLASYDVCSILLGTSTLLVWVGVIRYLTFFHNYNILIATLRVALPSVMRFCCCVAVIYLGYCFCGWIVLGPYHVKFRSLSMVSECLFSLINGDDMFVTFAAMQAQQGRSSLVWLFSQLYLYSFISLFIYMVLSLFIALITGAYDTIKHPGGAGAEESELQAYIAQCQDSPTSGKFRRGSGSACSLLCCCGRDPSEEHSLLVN
UniProt P51149: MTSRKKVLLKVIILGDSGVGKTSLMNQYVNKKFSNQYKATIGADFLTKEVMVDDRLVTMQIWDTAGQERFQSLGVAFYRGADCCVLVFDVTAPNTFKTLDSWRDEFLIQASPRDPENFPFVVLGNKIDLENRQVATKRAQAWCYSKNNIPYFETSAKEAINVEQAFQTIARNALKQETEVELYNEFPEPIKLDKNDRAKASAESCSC
UniProt Q9NVJ2: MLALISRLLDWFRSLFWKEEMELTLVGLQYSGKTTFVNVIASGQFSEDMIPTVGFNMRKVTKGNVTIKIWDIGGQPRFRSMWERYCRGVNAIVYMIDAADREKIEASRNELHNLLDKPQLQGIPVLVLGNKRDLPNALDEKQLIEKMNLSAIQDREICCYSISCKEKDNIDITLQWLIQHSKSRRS

Experiments:
Assay in all cases: co-IP; BON cells co-expressing GFP-tagged candidates and 3xHA or 3xFlag Munc13-4; lysis in 50 mM HEPES pH 7.5, 150 mM NaCl, 1% Triton X-100; GFP selector (GFP nanobody) beads, 4°C; western blot
[1] = molecular target: T1, GFP-tagged YKT6 (UniProt O15498)
T1 sequence: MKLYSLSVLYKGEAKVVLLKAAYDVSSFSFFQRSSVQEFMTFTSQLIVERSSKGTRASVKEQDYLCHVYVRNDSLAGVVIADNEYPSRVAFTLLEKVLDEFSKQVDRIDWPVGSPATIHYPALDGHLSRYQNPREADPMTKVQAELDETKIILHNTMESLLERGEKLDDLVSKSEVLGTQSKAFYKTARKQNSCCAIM

[2] = molecular target: GFP-tagged PLEKHM1 (in BON cells) (UniProt Q9Y4G2)
[3] = molecular target: GFP-tagged MCOLN1 (UniProt Q9GZU1)
[4] = molecular target: T2, GFP-tagged VPS39 (UniProt Q96JC1)
T2 sequence: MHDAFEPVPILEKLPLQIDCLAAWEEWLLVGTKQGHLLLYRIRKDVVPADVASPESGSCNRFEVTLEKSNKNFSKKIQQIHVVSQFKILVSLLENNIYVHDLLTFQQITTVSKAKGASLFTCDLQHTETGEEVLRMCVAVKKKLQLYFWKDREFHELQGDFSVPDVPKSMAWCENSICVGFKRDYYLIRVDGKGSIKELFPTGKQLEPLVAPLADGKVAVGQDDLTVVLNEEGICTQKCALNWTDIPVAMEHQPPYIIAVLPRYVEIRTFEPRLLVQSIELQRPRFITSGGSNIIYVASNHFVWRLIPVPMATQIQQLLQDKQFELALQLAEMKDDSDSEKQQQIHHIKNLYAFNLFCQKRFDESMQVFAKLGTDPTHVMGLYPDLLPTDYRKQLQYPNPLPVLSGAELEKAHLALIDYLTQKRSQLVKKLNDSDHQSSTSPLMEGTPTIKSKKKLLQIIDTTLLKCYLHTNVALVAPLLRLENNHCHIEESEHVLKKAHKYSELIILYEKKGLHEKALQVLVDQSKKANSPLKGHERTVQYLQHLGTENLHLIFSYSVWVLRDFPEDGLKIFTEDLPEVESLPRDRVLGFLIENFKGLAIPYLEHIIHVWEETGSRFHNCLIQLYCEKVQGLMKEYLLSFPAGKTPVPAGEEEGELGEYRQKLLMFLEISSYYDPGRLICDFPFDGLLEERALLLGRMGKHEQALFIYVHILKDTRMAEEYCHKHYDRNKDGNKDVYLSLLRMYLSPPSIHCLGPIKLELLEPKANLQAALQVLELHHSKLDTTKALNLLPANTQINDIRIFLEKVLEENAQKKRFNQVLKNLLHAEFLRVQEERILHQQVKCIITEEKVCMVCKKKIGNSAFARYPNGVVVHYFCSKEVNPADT

[5] = molecular target: T3, GFP-tagged VPS18 (UniProt Q9P253)
T3 sequence: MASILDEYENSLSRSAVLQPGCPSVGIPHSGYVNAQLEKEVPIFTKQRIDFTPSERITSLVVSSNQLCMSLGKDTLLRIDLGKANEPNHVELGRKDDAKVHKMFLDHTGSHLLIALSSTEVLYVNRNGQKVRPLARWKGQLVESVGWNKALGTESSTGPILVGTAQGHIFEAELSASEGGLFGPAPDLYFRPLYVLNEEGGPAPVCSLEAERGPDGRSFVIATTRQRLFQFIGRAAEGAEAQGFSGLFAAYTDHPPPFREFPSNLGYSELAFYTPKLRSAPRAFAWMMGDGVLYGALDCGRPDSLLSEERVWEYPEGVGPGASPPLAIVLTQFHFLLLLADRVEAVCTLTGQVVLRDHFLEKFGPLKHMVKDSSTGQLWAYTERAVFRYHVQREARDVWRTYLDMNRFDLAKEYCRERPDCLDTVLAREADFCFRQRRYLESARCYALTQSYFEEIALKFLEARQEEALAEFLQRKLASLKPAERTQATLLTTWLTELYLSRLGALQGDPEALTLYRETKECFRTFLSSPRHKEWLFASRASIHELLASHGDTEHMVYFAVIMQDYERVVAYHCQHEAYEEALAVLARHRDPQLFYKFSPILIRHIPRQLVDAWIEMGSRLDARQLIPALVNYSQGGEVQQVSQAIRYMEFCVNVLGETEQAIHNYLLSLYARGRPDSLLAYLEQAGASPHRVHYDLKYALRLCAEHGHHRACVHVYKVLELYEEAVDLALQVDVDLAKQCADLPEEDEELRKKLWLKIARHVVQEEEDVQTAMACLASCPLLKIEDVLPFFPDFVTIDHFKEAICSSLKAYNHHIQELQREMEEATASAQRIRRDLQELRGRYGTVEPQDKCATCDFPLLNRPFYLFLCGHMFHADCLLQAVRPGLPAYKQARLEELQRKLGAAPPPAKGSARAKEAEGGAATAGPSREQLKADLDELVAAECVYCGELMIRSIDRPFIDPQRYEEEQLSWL

[6] = molecular target: GFP-tagged Rab7 (UniProt P51149)
[7] = molecular target: GFP-tagged ARL8B (UniProt Q9NVJ2)
[8] = molecular target: T4, GFP-tagged VPS16 (UniProt Q9H269)
T4 sequence: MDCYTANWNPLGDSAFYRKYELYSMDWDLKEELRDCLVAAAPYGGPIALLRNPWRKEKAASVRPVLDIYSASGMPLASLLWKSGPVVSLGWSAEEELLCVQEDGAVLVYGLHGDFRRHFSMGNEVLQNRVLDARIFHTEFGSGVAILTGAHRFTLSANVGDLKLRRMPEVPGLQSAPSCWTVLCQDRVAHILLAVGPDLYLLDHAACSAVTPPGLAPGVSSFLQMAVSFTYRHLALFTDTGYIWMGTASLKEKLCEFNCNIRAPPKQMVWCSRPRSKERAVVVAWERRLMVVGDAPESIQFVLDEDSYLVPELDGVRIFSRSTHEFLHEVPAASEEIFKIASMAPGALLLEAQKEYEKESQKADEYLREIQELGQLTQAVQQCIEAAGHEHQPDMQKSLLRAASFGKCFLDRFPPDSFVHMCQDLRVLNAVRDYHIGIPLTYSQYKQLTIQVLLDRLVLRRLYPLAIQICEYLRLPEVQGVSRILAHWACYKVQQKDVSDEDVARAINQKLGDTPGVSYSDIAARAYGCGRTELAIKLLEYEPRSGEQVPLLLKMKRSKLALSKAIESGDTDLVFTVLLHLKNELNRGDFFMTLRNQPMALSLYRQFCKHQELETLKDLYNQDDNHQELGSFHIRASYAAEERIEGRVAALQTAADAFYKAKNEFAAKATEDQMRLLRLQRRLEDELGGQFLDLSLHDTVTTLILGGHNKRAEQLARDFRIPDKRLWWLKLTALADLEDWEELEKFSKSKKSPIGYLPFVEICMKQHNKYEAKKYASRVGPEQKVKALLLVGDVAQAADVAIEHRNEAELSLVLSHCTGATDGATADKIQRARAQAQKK

B1: HA-tagged Munc13-4 (protein, UniProt Q70J99 1-1090)
chain: MATLLSHPQQRPPFLRQAIKIRRRRVRDLQDPPPQMAPEIQPPSHHFSPEQRALLYEDALYTVLHRLGHPEPNHVTEASELLRYLQEAFHVEPEEHQQTLQRVRELEKPIFCLKATVKQAKGILGKDVSGFSDPYCLLGIEQGVGVPGGSPGSRHRQKAVVRHTIPEEETHRTQVITQTLNPVWDETFILEFEDITNASFHLDMWDLDTVESVRQKLGELTDLHGLRRIFKEARKDKGQDDFLGNVVLRLQDLRCREDQWYPLEPRTETYPDRGQCHLQFQLIHKRRATSASRSQPSYTVHLHLLQQLVSHEVTQHEAGSTSWDGSLSPQAATVLFLHATQKDLSDFHQSMAQWLAYSRLYQSLEFPSSCLLHPITSIEYQWIQGRLKAEQQEELAASFSSLLTYGLSLIRRFRSVFPLSVSDSPARLQSLLRVLVQMCKMKAFGELCPNTAPLPQLVTEALQTGTTEWFHLKQQHHQPMVQGIPEAGKALLGLVQDVIGDLHQCQRTWDKIFHNTLKIHLFSMAFRELQWLVAKRVQDHTTVVGDVVSPEMGESLFQLYISLKELCQLRMSSSERDGVLALDNFHRWFQPAIPSWLQKTYNEALARVQRAVQMDELVPLGELTKHSTSAVDLSTCFAQISHTARQLDWPDPEEAFMITVKFVEDTCRLALVYCSLIKARARELSSGQKDQGQAANMLCVVVNDMEQLRLVIGKLPAQLAWEALEQRVGAVLEQGQLQNTLHAQLQSALAGLGHEIRTGVRTLAEQLEVGIAKHIQKLVGVRESVLPEDAILPLMKFLEVELCYMNTNLVQENFSSLLTLLWTHTLTVLVEAAASQRSSSLASNRLKIALQNLEICFHAEGCGLPPKALHTATFQALQRDLELQAASSRELIRKYFCSRIQQQAETTSEELGAVTVKASYRASEQKLRVELLSASSLLPLDSNGSSDPFVQLTLEPRHEFPELAARETQKHKKDLHPLFDETFEFLVPAEPCRKAGACLLLTVLDYDTLGADDLEGEAFLPLREVPGLSGSEEPGEVPQTRLPLTYPAPNGDPILQLLEGRKGDREAQVFVRLRRHRAKQASQHALRPAP
Q: For B1, which binding [1] is on record?
A: The binding was “no binding”.

Q: What about the binding [2] of the same binder?
A: The binding was “binds”.

Q: What about the binding [3] of the same binder?
A: Its binding is “no binding”.

Q: What about the binding [4] of the same binder?
A: Its binding is “binds”.

Q: What about the binding [5] of the same binder?
A: Its binding is “binds”.

Q: And the binding [6]?
A: The binding was “no binding”.

B2: Flag-Munc13-4 (protein, UniProt Q70J99 1-1090)
chain: B1 chain
Q: How did the binding [7] turn out when B2 was run?
A: The binding was “no binding”.

Q: And the binding [8]?
A: Its binding is “binds”.
